The values below come from PubChem BioAssay AID463173 (ICCB-Longwood Screening Facility, Harvard Medical School, 2010).

Structures are written as SMILES. Out of some 52,000 compounds screened, about 1,700 (3.3%) were called active. Rule as the data show it: active = survival mostly below about 52% (no sharp cut-off); inactive = mostly above about 56%. The list shows a part of the results.

The test system of this test is Wild type. Description: S. aureus survival, RN4220 and DeltatarO strains – OD600, teichoic acid synthesis inhibitors, primary screen (AID 463173). To be noted: S. aureus RN4220 wild type/DeltatarO growth, OD600, 18 h, active compounds read low, screened at 18.75 µg/mL (by protocol).
As for `Cc1ccc(C)c(NS(=O)(=O)c2cc3c(cc2C)n(C)c(=O)c(=O)n3C)c1`, the survival was inactive: 75%.
With `CCN(CC)S(=O)(=O)c1cccc(C(=O)Nc2ccccc2C(=O)Nc2ccc(Cl)cc2)c1`, the survival is inactive: 51%.
For `CC(=O)c1ccc(NC(=O)c2cc(C)nn2-c2ccccc2)cc1`, the survival was inactive: 71%.
Consider `COCCN(CCOC)S(=O)(=O)c1ccc(C(=O)Nc2sc3c(c2C(=O)OC)CCN(C)C3)cc1`, for which the survival was inactive: 92%.
The value for `CCOC(=O)c1c(NC(=O)Cc2coc3cc(C)cc(C)c23)sc2c1CCC2` was inactive: 102%; that for `CCOC(=O)c1ccccc1NC(=O)c1sc2nc3n(c(=O)c2c1C)CCCCC3` was inactive: 77%; that for `CN(C)S(=O)(=O)N(CC(=O)NCCSCc1c(F)cccc1Cl)c1ccccc1` was inactive: 71%.
With `CN(C)c1ncnc2c1ncn2C1OC(CO)C(O)C1O` (centres undefined), the survival was inactive: 102%.
Then `COC(=O)c1c(NC(C)=O)c2c3c(sc2n1Cc1cc(C)ccc1C)CCCC3`, with inactive: 80%; and `Cc1ccc(NC(=O)c2cc(S(=O)(=O)N3CCC4(CC3)OCCO4)ccc2F)cc1Cl`, with inactive: 87%; and `CCCCN(CCCNC(=O)c1cc(Nc2cccc(SC)c2)nc2ccccc12)Cc1ccccc1`, with inactive: 86%.
Then `Cc1ccc(S(=O)(=O)N2CCC(N3CCN(Cc4ccccc4)C(=O)C3=O)CC2)cc1C`, with inactive: 71%; and `Cc1cccc(-n2c(C)cc(C(=O)C(=O)Nc3ccccc3F)c2C)c1C`, with inactive: 82%; and `CCCN1CCN(CCCNC(=O)c2cc3c(=O)n(CC)c4ccccc4c3s2)CC1`, with inactive: 85%.
Take `O=c1[nH]c(SCc2c(F)cccc2Cl)nc2c1CCC2`: the survival was inactive: 88%.
Consider `CCn1c(SCC(=O)OC2CCCCC2)nnc1-c1ccc(OC)cc1`, for which the survival was inactive: 113%.
Regarding `CCOc1ccc(-c2cccc(NS(=O)(=O)c3ccc(F)cc3F)c2)nn1`, the survival was inactive: 73%.
For the compound `COc1ccc(-c2noc(CNC(=O)c3ccccc3Br)n2)cc1`, the survival was inactive: 82%.
Consider `COc1ccc(C(=O)c2oc3ccccc3c2NC(=O)c2cc(=O)c3ccc(C)cc3o2)cc1Cl`, for which the survival was inactive: 87%.
Regarding `Cc1ccc(S(=O)(=O)CC(=O)Nc2nc3c(C)cc(C)cc3s2)cc1`, the survival is inactive: 80%.
Then `Cc1cccc(C(=O)Nc2nnc(S(=O)(=O)N(C)Cc3ccccc3)s2)c1`, with inactive: 29%; and `CCCOc1ccc(C2c3c(-c4ccccc4O)n[nH]c3C(=O)N2CCc2ccccc2)cc1OCC` (centres undefined), with inactive: 81%.
The value for `COc1cccc(NC(=O)c2cccc3c(=O)c4c([nH]c23)CCCC4)c1` was inactive: 73%; that for `CCOc1ccc(OCC)c(NC(=O)c2cc(S(=O)(=O)N3CCc4ccccc43)cn2C)c1` was inactive: 83%.
For the compound `CCOc1ccc2ncc3c(-c4ccc(C)cc4)nn(-c4cccc(F)c4)c3c2c1`, the survival is inactive: 56%.
Take `O=S(=O)(c1cccc(Cl)c1)c1nnn2c1nc(NCc1ccc3c(c1)OCO3)c1sccc12`: the survival was inactive: 80%.
Then `COc1ccc(-c2nc3c(c(SCC(=O)N4CCCCC4)n2)Cc2cc(C)ccc2O3)cc1`, with inactive: 80%; and `Cc1ccc(S(=O)(=O)NCC(c2ccco2)N2CCOCC2)cc1` (centres undefined), with inactive: 78%.
The value for `CC(=O)Nc1ccc(/C=C/c2noc(-c3ccccc3O)n2)cc1` was inactive: 86%.
Turning to `CCOC(=O)CSc1nc(-c2ccc(OCC)cc2)cc(C(F)(F)F)c1C#N`, the survival is inactive: 69%.
Consider `Cc1ccc(C)c(N2CCN(C(=O)Cn3cnc4onc(-c5ccc(F)cc5)c4c3=O)CC2)c1`, for which the survival was inactive: 72%.
Turning to `CC(=O)c1ccc(N2CCN(S(=O)(=O)c3cc4[nH]c(=O)c(=O)[nH]c4cc3C)CC2)cc1`, the survival was inactive: 66%.
Regarding `CCc1nnc(NC(=O)c2cc(=O)c3cc(C)ccc3o2)s1`, the survival is inactive: 85%.
For the compound `CCN1C(=C(C#N)C#N)C=Cc2cc(C)ccc21`, the survival is inactive: 112%.
Then `COc1ccccc1CNC(=O)C(=O)NCC(c1cccs1)S(=O)(=O)c1ccccc1` (centres undefined), with inactive: 124%; and `Cc1ccc2oc(=O)c3cc(C(=O)NCCCOC(C)C)sc3c2c1`, with inactive: 82%; and `COc1ccc(-n2c(SCC(=O)NCc3ccc(Cl)cc3)nc3ccsc3c2=O)cc1`, with inactive: 54%.
With `COc1ccc(-n2nnnc2C2CCN(S(=O)(=O)c3cccc(C(F)(F)F)c3)CC2)cc1`, the survival was inactive: 96%.
Then `COc1cccc(NC(=O)C(Cc2ccccc2)N2Cc3ccccc3C2=O)c1` (centres undefined), with inactive: 87%.
As for `Cc1ccc(NC(=O)CCCc2nc(-c3ccco3)no2)cc1Cl`, the survival is inactive: 73%.
On to `COc1ccc(-c2noc(CCC(=O)N(C)c3cc(Cl)ccc3OC)n2)cc1`, for which the survival was inactive: 20%.
Take `CC(C)CCOc1ccc(C(=O)NCC2OCCc3ccccc32)cc1` (centres undefined): the survival was inactive: 74%.
Turning to `CC(C)(C)C(=O)C1C2C3COC(O3)C(=O)C2C2C=Cc3ccccc3N21` (centres undefined), the survival is inactive: 127%.
For `COc1ccc(NS(=O)(=O)c2ccc(N3CCCCS3(=O)=O)cc2)cc1Cl`, the survival is inactive: 83%.
As to `COc1cccc(-n2c(=O)c3cc(OC)c(OC)cc3n(CC(=O)Nc3ccc(F)cc3)c2=O)c1`, the survival was inactive: 73%.
`CCCn1c2ccc(F)cc2c2nnc(SCCN3CCCCC3)nc21`: the survival is inactive: 145%.
The value for `CCC(=O)N1CCc2cc(Br)cc(S(=O)(=O)CCC(=O)Nc3cccc(Cl)c3)c21` was inactive: 75%; that for `CCCc1cnc2c(c1SCC(=O)Nc1ccccc1OCC)c(=O)n(C)c(=O)n2C` was inactive: 64%; that for `COc1cc(NC(=O)c2cccc(Cl)c2Cl)ccc1NC(=O)c1cc2ccccc2o1` was inactive: 83%.
In the case of `CCS(=O)(=O)N1CCCc2cc(C(=O)Nc3cccc(C(C)=O)c3)ccc21`, the survival was inactive: 98%.
Consider `CCOc1ccc(C(=O)N(Cc2ccc(C(C)C)cc2)Cc2ccco2)cc1`, for which the survival was inactive: 78%.
The value for `O=S(=O)(N1CCCCC1)N1CCNCC1` was inactive: 116%; that for `Clc1ccc(-c2nnn3c2nc(NC2CCCCC2)c2ccccc23)cc1` was inactive: 57%; that for `CCOc1ccc(Nc2ncnc3c2c(-c2ccccc2)cn3-c2cccc(C)c2)cc1` was inactive: 115%.
As to `Cc1cc2c(cc1NS(=O)(=O)c1ccc(Br)cc1)n(C)c(=O)c(=O)n2C`, the survival is inactive: 129%.
Take `CCCSCCCNC(=O)c1ccc(C)c(NC(=O)c2nsc3ccccc23)c1`: the survival was inactive: 73%.
In the case of `COc1cccc(Cn2nc(SC)c(S(=O)(=O)c3ccccc3)c2N(C(C)=O)C(C)=O)c1`, the survival was inactive: 71%.
As for `c1ccc2[nH]c(CSc3nnnn3C3CCCCC3)nc2c1`, the survival was inactive: 98%.
Then `COc1ccc(CC(=O)N2CCc3cc(OC)c(OC)cc3C2COc2ccc(F)cc2)cc1` (centres undefined), with inactive: 93%; and `Cn1nc(-c2ccccc2F)c2cc(C(=O)NCc3ccccc3Cl)sc21`, with inactive: 117%.
Consider `CCn1cc(C(=O)O)c(=O)c2cc(F)c(N3CCN(C(=O)c4ccccc4F)CC3)cc21`, for which the survival was inactive: 54%.
The value for `COc1ccc(N2CCN(S(=O)(=O)c3ccc(F)c(C(=O)Nc4ccccc4Cl)c3)CC2)cc1` was inactive: 70%.
For the compound `COc1cc2c(cc1OC)C(c1cccc(Cl)c1)CC(=O)N2` (centres undefined), the survival was inactive: 72%.
The value for `CC(C)(C)OC(=O)N1CCC(c2c(C(=O)NCc3cccs3)cnn2-c2cccc(F)c2)CC1` was active: -6%.
Consider `COc1ccc(Cl)cc1NC(=O)N1CCN(S(=O)(=O)c2ccc3c(ccn3C)c2)CC1`, for which the survival is inactive: 101%.
For `O=C(c1ccc(F)cc1)N1CCc2c([nH]c3ccccc23)C1c1ccc(Cl)cc1` (centres undefined), the survival was inactive: 66%.
For `CCc1ccc(OCCSc2nc3ccccc3n2CC(=O)N2CCCCC2)cc1`, the survival is inactive: 70%.
Consider `CCOc1ccc(NCc2cccn2-c2nnc(N3CCC(C(=O)NCc4ccccc4Cl)CC3)s2)cc1`, for which the survival is inactive: 81%.
As to `c1ccc2c(c1)ncn2CCn1cnc2ccccc21`, the survival is inactive: 104%.
The value for `CC(C)Oc1ccc(NC(=O)C2COc3ccccc3O2)cc1` (centres undefined) was inactive: 109%.
In the case of `Cc1ccc(OCCSc2nc(-c3ccccc3C)nc3cc(=O)[nH]n23)cc1Cl`, the survival was inactive: 124%.
Turning to `COc1ccccc1N1CCN(c2ncnc3c2c(-c2ccccc2)cn3-c2cccc(Cl)c2)CC1`, the survival is inactive: 74%.
On to `CCc1nn(C(CC)C(=O)NCc2ccc(OC)c(OC)c2)c(=O)c2cc3oc(C)cc3n12` (centres undefined), for which the survival was inactive: 87%.
Consider `Cc1nn(-c2nc(-c3ccccc3)cc(C(F)(F)F)n2)c(C)c1Cl`, for which the survival is active: -3%.
Then `CCOc1ccc2c(c1)c(=O)c(C(=O)c1ccc3c(c1)OCO3)cn2Cc1ccc(F)cc1`, with inactive: 79%; and `COc1cc(/C=C(\C#N)c2nc3ccc(C)cc3[nH]2)ccc1OCc1ccc(C)cc1`, with inactive: 68%.
For the compound `COc1ccc(S(=O)(=O)N2CCC(Oc3ccc(-n4cnnn4)cc3)CC2)cc1`, the survival is inactive: 88%.
Turning to `COc1cccc(OC)c1C(=O)NCCc1sc(-c2cccc(F)c2)nc1C`, the survival is inactive: 97%.
As for `O=C(c1cc2ccccc2oc1=O)N1CCCCCC1`, the survival was inactive: 88%.
For the compound `CCCCNC(=O)c1cccc(NC(=O)c2nsc3ccccc23)c1`, the survival was inactive: 59%.
On to `CCN(C(=O)c1cn(-c2cccc(OC)c2)c(=O)c2ccccc12)c1ccccc1C`, for which the survival was inactive: 79%.
As to `c1ccc(-c2nc(-c3cccnc3)no2)cc1`, the survival is inactive: 103%.
Turning to `CC(=O)Nc1ccc(NC(=O)c2nc(S(=O)(=O)Cc3ccc(F)cc3)ncc2Cl)cc1`, the survival was inactive: 64%.
For `COc1cccc(CNC(=O)c2cnc3c(-c4ccc(F)cc4)c(C)nn3c2C)c1`, the survival was inactive: 136%.
For `CCc1ccc(C2C(C(=O)Nc3ccccc3OC)=C(C)Nc3c(C(=O)Nc4ccc(C)cc4)cnn32)cc1` (centres undefined), the survival is inactive: 74%.
Take `CC1CCCN(C(=O)CN2CCN(C(=O)c3ccco3)CC2)C1` (centres undefined): the survival was inactive: 119%.
In the case of `COc1ccc(C(=O)Nc2ccccc2-c2nc3ccccc3s2)cc1OC`, the survival was active: -6%.
The value for `Cc1ccc(C)c(NC(=O)CSc2nccn2-c2cccc(C)c2C)c1` was inactive: 83%; that for `COc1cccc(NC(=O)CN2C(=O)c3ccccc3Sc3ncccc32)c1` was inactive: 91%.
